Data published in publication PMC5623906.
Results are given in words; binding and its absence hold for the method and conditions named. In cells and extracts the contact can be indirect. Some binding calls cover weakened binding; strength is not graded here.

Amino acid sequences for entries named in this document (tags omitted). A change or cut given only in a name is not applied to a line headed by its entry. Residues count along the entry.
UniProt Q04206: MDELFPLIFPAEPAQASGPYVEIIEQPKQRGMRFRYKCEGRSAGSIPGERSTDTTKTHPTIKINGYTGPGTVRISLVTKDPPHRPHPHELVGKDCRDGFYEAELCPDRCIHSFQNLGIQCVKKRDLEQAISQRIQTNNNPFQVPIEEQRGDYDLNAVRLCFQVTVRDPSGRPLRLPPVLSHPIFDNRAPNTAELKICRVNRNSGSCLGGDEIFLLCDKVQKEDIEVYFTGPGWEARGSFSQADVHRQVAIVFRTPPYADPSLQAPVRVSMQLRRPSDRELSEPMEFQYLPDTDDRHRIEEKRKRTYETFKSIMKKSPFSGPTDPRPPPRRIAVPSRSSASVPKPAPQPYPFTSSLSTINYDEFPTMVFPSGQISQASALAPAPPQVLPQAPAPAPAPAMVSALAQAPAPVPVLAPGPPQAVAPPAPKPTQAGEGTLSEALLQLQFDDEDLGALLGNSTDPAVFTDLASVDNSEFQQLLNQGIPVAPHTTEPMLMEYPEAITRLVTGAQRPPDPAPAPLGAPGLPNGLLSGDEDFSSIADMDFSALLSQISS

Tests used:
[1] = target: endogenous p65 (A375 and A549 cells) (human (endogenous in A375 and A549)) (UniProt Q04206); assay: co-IP; endogenous proteins in A375 and A549 lysates; NP-40 lysis buffer (50 mM Tris-HCl pH 7.6, 150 mM NaCl, 1 mM EDTA, 1% NP-40); antibody overnight at 4 °C, protein A/G-Sepharose; immunoblot
[2] = target: GST-PRAS40 (proline-rich AKT substrate of 40 kDa), full length (human) (UniProt Q96B36); assay: pull-down; GST-tagged and Venus-tagged (or otherwise tagged) proteins co-transfected in cells; lysis in CHAPS buffer (40 mM HEPES pH 7.5, 120 mM NaCl, 1 mM EDTA, 0.3% CHAPS); glutathione beads overnight at 4 °C; western blot of eluates
[3] = target: GST-PRAS40 (proline-rich AKT substrate of 40 kDa), full length (human) (UniProt Q96B36); assay: pull-down; GST-PRAS40 pull-down of exogenous or endogenous P65 with Venus- or HA-tagged p65 180-200 co-expressed as competitor (Figure 6a, b)
[4] = target: GST-PRAS40 (proline-rich AKT substrate of 40 kDa), full length (human) (UniProt Q96B36); assay: pull-down; GST pull-down of P65 by full-length PRAS40 with the PRAS40 98-110 fragment co-expressed as competitor (Figure 4c lanes 5 and 6)
[5] = target: GST-PRAS40 110-256 (human) (UniProt Q96B36); assay: pull-down; GST-tagged and Venus-tagged (or otherwise tagged) proteins co-transfected in cells; lysis in CHAPS buffer (40 mM HEPES pH 7.5, 120 mM NaCl, 1 mM EDTA, 0.3% CHAPS); glutathione beads overnight at 4 °C; western blot of eluates
GST-PRAS40 1-51 (human) = GST-PRAS40 1-51 (human) (UniProt Q96B36); assay: as above
GST-PRAS40 1-23 (human) = GST-PRAS40 1-23 (human) (UniProt Q96B36); assay: as above
[6] = target: GST-PRAS40 23-256 (human) (UniProt Q96B36); assay: as above
GST-PRAS40 1-110 (human) = GST-PRAS40 1-110 (human) (UniProt Q96B36); assay: as above
GST-PRAS40 1-75 (human) = GST-PRAS40 1-75 (human) (UniProt Q96B36); assay: as above
[7] = target: GST-PRAS40 98-256 (human) (UniProt Q96B36); assay: as above
[8] = target: GST-PRAS40 44-256 (human) (UniProt Q96B36); assay: as above
GST-PRAS40 1-125 (human) = GST-PRAS40 1-125 (human) (UniProt Q96B36); assay: as above
[9] = target: GST-PRAS40 75-256 (human) (UniProt Q96B36); assay: as above
[10] = target: T1, PRAS40 98-110 fragment (human); assay: as above
T1 sequence: LAREDNEEDEDEP

In the case of “endogenous PRAS40 (from UniProt Q96B36 1-256)”, the binding [1] is reported as “binds”.
“p65 1-196 (from UniProt Q04206 1-196) (domain or fragment)” was tested, and the binding [2] was “binds”.
With “endogenous P65 (cells transfected with GST-PRAS40) (from UniProt Q04206 1-551)” the binding [3] was “binds”.
With “p65 1-534 (from UniProt Q04206 1-534) (domain or fragment)” the binding [2] was “binds”.
With “p65 190-290 (from UniProt Q04206 190-290) (domain or fragment)” the binding [2] was “no binding”.
In the case of “p65 271-551 (from UniProt Q04206 271-551) (domain or fragment)”, the binding [2] is reported as “no binding”.
In the case of “p65 126-313 (from UniProt Q04206 126-313) (domain or fragment)”, the binding [2] is reported as “binds”.
In the case of “p65 1-521 (from UniProt Q04206 1-521) (domain or fragment)”, the binding [2] is reported as “binds”.
“p65 1-313 (Rel homology domain) (from UniProt Q04206 1-313) (domain or fragment)” was tested, and the binding [2] was “binds”.
For “Venus-p65 (P65 protein with the Venus-Flag tag), full length (from UniProt Q04206 1-551)”, the binding [4] was “binds”, the binding [3] was “binds” and the binding [5] was “no binding”. For the same substance, the binding (GST-PRAS40 1-51 (human)) was “no binding”, the binding (GST-PRAS40 1-23 (human)) was “no binding” and the binding [6] was “binds”. For the same substance, the binding [2] was “binds”, the binding (GST-PRAS40 1-110 (human)) was “binds” and the binding (GST-PRAS40 1-75 (human)) was “no binding”. For the same substance, the binding [7] was “binds”, the binding [8] was “binds” and the binding (GST-PRAS40 1-125 (human)) was “binds”. For the same substance, the binding [9] was “binds” and the binding [10] was “binds”.
With “p65 1-190 (from UniProt Q04206 1-190) (domain or fragment)” the binding [2] was “no binding”.
